According to publication PMC6777367:
No constants are given. Whether binding was seen depends on the method and setting. In cells and extracts the contact can be indirect. Some results given as binding are weak or reduced against the parent protein; the word gives no strength. For some assays here: Sequences can lack the tags named with a protein. Blank lines part the entries; values can stand above or below the molecule they belong to.

Protein sequences, listed by entry. Tags and fused reporters are not part of them.
UniProt Q8IY31: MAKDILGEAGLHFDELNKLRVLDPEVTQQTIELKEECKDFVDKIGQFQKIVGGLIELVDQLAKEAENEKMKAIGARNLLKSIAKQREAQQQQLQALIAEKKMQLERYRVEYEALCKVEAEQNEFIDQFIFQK

Legend:
EGFP-IFT38(WT) (human) [1] = molecular target: T1, EGFP-IFT38(WT) (human) (UniProt Q96AJ1); experiment: co-IP; visible immunoprecipitation (VIP) assay: lysates of co-transfected HEK293T cells (HMDEKN buffer: 10 mM HEPES pH 7.4, 5 mM MgSO4, 1 mM DTT, 0.5 mM EDTA, 25 mM KCl, 0.05% NP-40) precipitated by the EGFP fusion with GST-tagged anti-GFP nanobody on glutathione-Sepharose 4B beads; red fluorescence on the beads seen by microscopy
T1 sequence: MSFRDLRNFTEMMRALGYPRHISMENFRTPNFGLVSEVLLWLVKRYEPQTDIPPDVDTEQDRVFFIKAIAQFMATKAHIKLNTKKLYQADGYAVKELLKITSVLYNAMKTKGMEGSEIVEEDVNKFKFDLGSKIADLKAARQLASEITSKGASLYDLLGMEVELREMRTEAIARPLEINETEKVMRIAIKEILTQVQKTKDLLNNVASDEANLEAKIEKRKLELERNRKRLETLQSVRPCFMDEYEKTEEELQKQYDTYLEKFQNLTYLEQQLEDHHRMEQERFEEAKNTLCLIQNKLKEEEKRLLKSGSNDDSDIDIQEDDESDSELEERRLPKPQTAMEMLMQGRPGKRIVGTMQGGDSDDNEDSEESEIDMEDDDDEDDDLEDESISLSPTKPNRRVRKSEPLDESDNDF

EGFP-IFT38(ΔC) (human) = molecular target: T2, EGFP-IFT38(ΔC) (human) (UniProt Q96AJ1); experiment: as above
T2 sequence: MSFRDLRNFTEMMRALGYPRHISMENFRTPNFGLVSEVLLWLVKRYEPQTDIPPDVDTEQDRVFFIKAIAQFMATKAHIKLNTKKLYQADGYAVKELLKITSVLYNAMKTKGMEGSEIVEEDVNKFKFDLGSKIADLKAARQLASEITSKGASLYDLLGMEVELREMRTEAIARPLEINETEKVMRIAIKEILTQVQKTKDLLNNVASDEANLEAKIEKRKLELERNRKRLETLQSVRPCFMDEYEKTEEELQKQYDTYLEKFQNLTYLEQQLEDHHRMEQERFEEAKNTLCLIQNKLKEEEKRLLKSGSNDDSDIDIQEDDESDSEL

IFT25–IFT27 = molecular target: T3, IFT25–IFT27 (UniProt Q9Y547); experiment: as above
T3 sequence 1: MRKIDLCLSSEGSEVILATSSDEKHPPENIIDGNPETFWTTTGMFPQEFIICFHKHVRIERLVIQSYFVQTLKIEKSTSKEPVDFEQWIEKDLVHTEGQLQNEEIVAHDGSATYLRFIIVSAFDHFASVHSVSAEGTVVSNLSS
T3 sequence 2: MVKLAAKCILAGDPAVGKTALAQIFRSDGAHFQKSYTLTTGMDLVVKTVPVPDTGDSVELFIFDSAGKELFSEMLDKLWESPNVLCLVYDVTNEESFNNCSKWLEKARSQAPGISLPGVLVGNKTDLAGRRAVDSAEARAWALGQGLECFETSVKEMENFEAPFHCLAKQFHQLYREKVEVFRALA

EGFP-IFT38(WT) (human) [2] = molecular target: T1, EGFP-IFT38(WT) (human); experiment: co-IP; as the VIP assay (EGFP fusion precipitated from HEK293T lysates with GST-tagged anti-GFP nanobody beads), the beads then analysed by conventional immunoblotting with anti-mChe or anti-RFP and anti-GFP antibodies
EGFP-IFT38(WT) (human) [3] = molecular target: T1, EGFP-IFT38(WT) (human); experiment: co-IP; visible immunoprecipitation (VIP) assay: lysates of co-transfected HEK293T cells (HMDEKN buffer: 10 mM HEPES pH 7.4, 5 mM MgSO4, 1 mM DTT, 0.5 mM EDTA, 25 mM KCl, 0.05% NP-40) precipitated by the EGFP fusion with GST-tagged anti-GFP nanobody on glutathione-Sepharose 4B beads; red fluorescence on the beads seen by microscopy; remark: listed apart in the source

Molecule: mChe-fused IFT20 (from UniProt Q8IY31 1-132)
binding (EGFP-IFT38(WT) (human) [1]): binds | binding (EGFP-IFT38(ΔC) (human)): binds

Molecule: all subunits of the BBSome (co-expressed, Fig. S1A) (from UniProt Q8NFJ9 1-593; Q9BXC9 1-721; Q96RK4 1-519; Q8N3I7 1-341; Q8IWZ6 1-715; Q8TAM2 1-541; Q3SYG4 1-887; A8MTZ0 1-92) (complex)
binding (IFT25–IFT27): no binding

Molecule: core subunits of the BBSome (co-expressed, Fig. S1A) (from UniProt Q8NFJ9 1-593; Q9BXC9 1-721; Q8IWZ6 1-715; Q3SYG4 1-887) (complex)
binding (IFT25–IFT27): no binding

B2: mCherry (mChe)-fused BBS1 (protein, UniProt Q8NFJ9 1-593)
chain: MAAASSSDSDACGAESNEANSKWLDAHYDPMANIHTFSACLALADLHGDGEYKLVVGDLGPGGQQPRLKVLKGPLVMTESPLPALPAAAATFLMEQHEPRTPALALASGPCVYVYKNLRPYFKFSLPQLPPNPLEQDLWNQAKEDRIDPLTLKEMLESIRETAEEPLSIQSLRFLQLELSEMEAFVNQHKSNSIKRQTVITTMTTLKKNLADEDAVSCLVLGTENKELLVLDPEAFTILAKMSLPSVPVFLEVSGQFDVEFRLAAACRNGNIYILRRDSKHPKYCIELSAQPVGLIRVHKVLVVGSTQDSLHGFTHKGKKLWTVQMPAAILTMNLLEQHSRGLQAVMAGLANGEVRIYRDKALLNVIHTPDAVTSLCFGRYGREDNTLIMTTRGGGLIIKILKRTAVFVEGGSEVGPPPAQAMKLNVPRKTRLYVDQTLREREAGTAMHRAFQTDLYLLRLRAARAYLQALESSLSPLSTTAREPLKLHAVVQGLGPTFKLTLHLQNTSTTRPVLGLLVCFLYNEALYSLPRAFFKVPLLVPGLNYPLETFVESLSNKGISDIIKVLVLREGQSAPLLSAHVNMPGSEGLAAA
binding (EGFP-IFT38(WT) (human) [2]): no binding | binding (EGFP-IFT38(WT) (human) [3]): no binding

B3: mCherry (mChe)-fused BBS9 (protein, UniProt Q3SYG4 1-887)
chain: MSLFKARDWWSTILGDKEEFDQGCLCLANVDNSGNGQDKIIVGSFMGYLRIFSPHPAKTGDGAQAEDLLLEVDLRDPVLQVEVGKFVSGTEMLHLAVLHSRKLCVYSVSGTLGNVEHGNQCQMKLMYEHNLQRTACNMTYGSFGGVKGRDLICIQSMDGMLMVFEQESYAFGRFLPGFLLPGPLAYSSRTDSFLTVSSCQQVESYKYQVLAFATDADKRQETEQQKLGSGKRLVVDWTLNIGEQALDICIVSFNQSASSVFVLGERNFFCLKDNGQIRFMKKLDWSPSCFLPYCSVSEGTINTLIGNHNNMLHIYQDVTLKWATQLPHIPVAVRVGCLHDLKGVIVTLSDDGHLQCSYLGTDPSLFQAPNVQSRELNYDELDVEMKELQKIIKDVNKSQGVWPMTEREDDLNVSVVVSPNFDSVSQATDVEVGTDLVPSVTVKVTLQNRVILQKAKLSVYVQPPLELTCDQFTFEFMTPDLTRTVSFSVYLKRSYTPSELEGNAVVSYSRPTDRNPDGIPRVIQCKFRLPLKLICLPGQPSKTASHKITIDTNKSPVSLLSLFPGFASQSDDDQVNVMGFHFLGGARITVLASKTSQRYRIQSEQFEDLWLITNELILRLQEYFEKQGVKDFACSFSGSIPLQEYFELIDHHFELRINGEKLEELLSERAVQFRAIQRRLLARFKDKTPAPLQHLDTLLDGTYKQVIALADAVEENQGNLFQSFTRLKSATHLVILLIALWQKLSADQVAILEAAFLPLQEDTQELGWEETVDAAISHLLKTCLSKSSKEQALNLNSQLNIPKDTSQLKKHITLLCDRLSKGGRLCLSTDAAAPQTMVMPGGCTTIPESDLEERSVEQDSTELFTNHRHLTAETPRPEVSPLQGVSE
binding (EGFP-IFT38(WT) (human) [2]): no binding | binding (EGFP-IFT38(WT) (human) [3]): no binding

Next, values leading:

binding (EGFP-IFT38(WT) (human) [2]): binds | binding (EGFP-IFT38(WT) (human) [1]): binds
Molecule: mChe-BBS2+BBS9 (co-expressed) (from UniProt Q9BXC9 1-721; Q3SYG4 1-887) (complex)

binding (EGFP-IFT38(WT) (human) [2]): binds | binding (EGFP-IFT38(WT) (human) [3]): binds
B1: mChe-BBS1+BBS9 (co-expressed) (complex, UniProt Q8NFJ9 1-593; Q3SYG4 1-887)
chain 1: B2 chain
chain 2: B3 chain

binding (EGFP-IFT38(WT) (human) [2]): no binding | binding (EGFP-IFT38(WT) (human) [3]): no binding
B4: mCherry (mChe)-fused BBS2 (protein, UniProt Q9BXC9 1-721)
chain: MLLPVFTLKLRHKISPRMVAIGRYDGTHPCLAAATQTGKVFIHNPHTRNQHVSASRVFQSPLESDVSLLSINQAVSCLTAGVLNPELGYDALLVGTQTNLLAYDVYNNSDLFYREVADGANAIVLGTLGDISSPLAIIGGNCALQGFNHEGSDLFWTVTGDNVNSLALCDFDGDGKKELLVGSEDFDIRVFKEDEIVAEMTETEIVTSLCPMYGSRFGYALSNGTVGVYDKTSRYWRIKSKNHAMSIHAFDLNSDGVNELITGWSNGKVDARSDRTGEVIFKDNFSSAIAGVVEGDYRMDGHIQLICCSVDGEIRGYLPGTAEMRGNLMDTSAEQDLIRELSQKKQNLLLELRNYEENAKAELASPLNEADGHRGIIPANTRLHTTLSVSLGNETQTAHTELRISTSNDTIIRAVLIFAEGIFTGESHVVHPSIHNLSSSICIPIVPPKDVPVDLHLKAFVGYRSSTQFHVFESTRQLPRFSMYALTSLDPASEPISYVNFTIAERAQRVVVWLGQNFLLPEDTHIQNAPFQVCFTSLRNGGHLHIKIKLSGEITINTDDIDLAGDIIQSMASFFAIEDLQVEADFPVYFEELRKVLVKVDEYHSVHQKLSADMADHSNLIRSLLVGAEDARLMRDMKTMKSRYMELYDLNRDLLNGYKIRCNNHTELLGNLKAVNQAIQRAGRLRVGKPKNQVITACRDAIRSNNINTLFKIMRVGTASS
